The data set concerns the molecule itself. In words: DEER; Q-band four-pulse DEER at 50 K, 20% deuterated glycerol, flash frozen; isolated single-labelled SN1 (26 μM for 23R1) or SN2 (31 μM for 173R1).

B1: SN1 ([…]) V48C, spin-labelled (48R1) (domain or fragment)
chain: not shown
modifications: nitroxide side chain R1 (cysteine reacted with the MTS reagent) at 48
notes: SN1 SNARE domain of SNAP25a (isoform a), Rattus norvegicus, […]; also called 48R1 SNAP25 SN1; spin-labeled SN1; source: E. coli BL21(DE3), purified (Ni2+-NTA, thrombin, anion exchange), spin-labelled
On to B1, for which the binding result was “binds”.

B2: SN1 ([…]) D23C, spin-labelled (23R1) (domain or fragment)
chain: not shown
modifications: nitroxide side chain R1 (cysteine reacted with the MTS reagent) at 23
notes: SN1 SNARE domain of SNAP25a (isoform a), Rattus norvegicus, […]; also called 23R1 SN1; spin-labeled SN1; source: E. coli BL21(DE3), purified (Ni2+-NTA, thrombin, anion exchange), spin-labelled
As to B2, the binding result is “binds”.

B3: SN1 ([…]) E38C, spin-labelled (38R1) (domain or fragment)
chain: not shown
modifications: nitroxide side chain R1 (cysteine reacted with the MTS reagent) at 38
notes: SN1 SNARE domain of SNAP25a (isoform a), Rattus norvegicus, […]; also called 38R1 SN1; spin-labeled SN1; source: E. coli BL21(DE3), purified (Ni2+-NTA, thrombin, anion exchange), spin-labelled
Regarding B3, the binding result is recorded as “binds”.
